In PubChem BioAssay AID624417 (National Center for Advancing Translational Sciences (NCATS), 2012):
Hit rate of the full screen: of about 410,000 compounds, about 6,400 (1.6%) were called active. Inconclusive results, whose numbers are uncertain, are shown with a selection of clear calls. Calls follow the shape of the dose curve; as a rule, active = well fitted inhibition curve with a large enough effect; inconclusive = small, poorly fitted or top-dose-only effect; inactive = no such curve, though single readings can be large or run the other way. Potencies beside an inconclusive call are fits to weak or partial responses and may not hold up.

Biological target: Glucagon-like peptide 1 receptor (Homo sapiens) (UniProt P43220)
Sequence of UniProt P43220 (P43220 whole entry, looked up): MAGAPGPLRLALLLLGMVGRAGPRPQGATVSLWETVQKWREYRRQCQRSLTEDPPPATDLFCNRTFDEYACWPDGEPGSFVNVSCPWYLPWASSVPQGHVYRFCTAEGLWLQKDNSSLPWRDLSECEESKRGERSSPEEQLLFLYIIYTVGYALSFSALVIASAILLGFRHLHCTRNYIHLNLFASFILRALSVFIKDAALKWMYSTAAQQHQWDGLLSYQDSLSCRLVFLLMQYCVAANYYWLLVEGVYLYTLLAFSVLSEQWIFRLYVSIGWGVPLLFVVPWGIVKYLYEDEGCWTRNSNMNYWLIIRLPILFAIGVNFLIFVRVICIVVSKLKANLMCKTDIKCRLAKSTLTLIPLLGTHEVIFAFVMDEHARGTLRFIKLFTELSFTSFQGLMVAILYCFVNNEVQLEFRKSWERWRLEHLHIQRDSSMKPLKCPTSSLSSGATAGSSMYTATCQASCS
Test: qHTS of GLP-1 Receptor Inverse Agonists (Inhibition Mode); also: nearly all actives have a fitted effect of over 55% in size
Details: HEK293 GLP-1R CRE-luciferase, luminescence, 24 h, GLP-1R form is constitutively active; activity change, negative = inhibition: at 38.3 µM (top of the series) unless noted
How it was run: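 Cells are plated, allowed 12 hours at 37 deg C, then treated with compounds for 24 hr before luciferase detection reagent is added and luminescence is read after 12 min at room temperature. The HEK293 line carries constitutively active GLP-1R with a cAMP-responsive reporter.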
% is scaled to controls: 0 for no effect and ±100 for the full control effect; potency is read from the fitted curve at half-maximal effect; tags tell the direction and shape of the fitted curve.

Activity change, negative = inhibition, inactive:
CCCn1c(SCC(=O)N2CCc3ccccc3C2)nc(O)cc1=O 16.5%, CC(C)(C)OC(=O)NCCCCCNC(=O)c1[nH]cnc1C(=O)Nc1cccc(Cl)c1 21.1%, O=C(NCc1ccccc1)c1cnc2sc(N3CCCC3)nn2c1=O 2.3%, CCOc1cc(C(=O)OC(C)C(=O)Nc2ncc(Cl)cc2Cl)ccc1OCC(=O)N1CCOCC1 (stereo not drawn) 11%, O=C(c1ccc2c(c1)OCCCO2)N1CCCCC1 6.6%, Cc1nnc(N/N=C/c2ccccc2O)n1N 5.71%, Cc1ccc(-c2noc(-c3cccnc3NCc3ccco3)n2)cc1 29.4%, CCc1nnc(SCc2cccc(Cl)c2)c2cc3sccc3n12 11.2%, CCCc1nnc(NC(=O)Cn2c(=O)oc3cc(Br)ccc32)s1 -25%, COc1ccc(-c2cc(OC(=O)c3ccccc3Cl)c3c(C)oc(C)c3c(=O)c2)cc1OC 0.362%, CCOC(=O)c1oc2cc(O)cc(C)c2c1C 42.8%, CCOc1ccc(CNC(=O)CCCn2c(=O)c3cccn3c3ccccc32)cc1 0.606%

Potency, inconclusive:
C/C(=N\Nc1nc(C)c(C)s1)c1ccc([N+](=O)[O-])cc1 10 µM [inhibitor, partial curve, poor fit], CCOc1cc(S(=O)(=O)NCCc2c(C)[nH]c3ccc(C)cc23)ccc1F 22.4 µM [inhibitor, partial curve, poor fit], CN1CCC(NC(=O)Nc2cccc(C(F)(F)F)c2)CC1 31.6 µM [inhibitor, single point], O=C(Nc1cccc(C(=O)OCc2cc(=O)n3c4c(sc3n2)CCCC4)c1)c1ccc(Cl)cc1 28.2 µM [inhibitor, single point], CCCSc1oc(-c2cccs2)nc1S(=O)(=O)c1ccc(C)cc1 28.2 µM [inhibitor, single point], Cc1cc(C)c(S(=O)(=O)NCCn2c(C)cc3ccccc32)c(C)c1 28.2 µM [inhibitor, single point], CC1(C)Cc2c(sc3nc(SCC(=O)NCc4ccco4)n(-c4ccccc4)c(=O)c23)CS1 4.47 µM [inhibitor, partial curve], N/C(=N\OC(=O)c1ccccc1Cl)c1ccc(Cl)cc1 28.2 µM [inhibitor, single point], CC1CN(c2nc3ccccc3nc2SCC(=O)Nc2ccc(F)cc2)CC(C)O1 (stereo not drawn) 28.2 µM [inhibitor, single point], O=C(Cn1cc(SCc2ccc(F)cc2)c2ccccc21)N1CCCCC1 28.2 µM [inhibitor, single point], CSCCC(NC(=O)c1ccccc1)C(=O)Nc1ccc(C)cc1 (stereo not drawn) 10 µM [inhibitor, partial curve, poor fit], CCCCCc1c(-c2ccc(Cl)cc2)ncn1CCc1ccccc1OC 28.2 µM [inhibitor, single point], Cc1ccc(OCCNC(=O)c2ccc3c(c2)OCO3)cc1 7.08 µM [inhibitor, partial curve, poor fit], COc1cc(C2C(C#N)=C(N)Oc3c2ccc2ccccc32)ccc1OCC(=O)Nc1ccc(C)cc1 (stereo not drawn) 12.6 µM [inhibitor, single point], O=C(NCc1cccnc1)/C(=C/c1ccc(-c2ccc(Cl)cc2)o1)S(=O)(=O)c1ccccc1 3.16 µM [inhibitor, partial curve, poor fit], CCCC(=O)Nc1cccc(NC(=S)NC(=O)C(C)Oc2ccc(Cl)cc2Cl)c1 (stereo not drawn) 25.1 µM [inhibitor, single point], O=[N+]([O-])c1c(O)c(Cl)cc(Cl)c1Cl (tested in a mixture with another compound) 10 µM [inhibitor, partial curve], CO/N=C(/CNC(=O)c1ccccc1Cl)c1ccc(Cl)cc1 11.2 µM [inhibitor, partial curve, poor fit], Cc1cc2cc(CNC(=S)NC3CCCCC3)ccc2n1C 15.8 µM [inhibitor, single point], CC(OC(=O)CSc1ccc([N+](=O)[O-])cc1)C(=O)NCc1ccccc1 (stereo not drawn) 31.6 µM [inhibitor, single point], COc1cccc(/C=N/Nc2ccccc2C(=O)O)c1O 28.2 µM [inhibitor, single point], O=C(CN1CCN(S(=O)(=O)c2ccc(Cl)cc2)CC1)Nc1ccc2c(c1)OCO2 11.2 µM [inhibitor, partial curve, poor fit], O=C(CCc1ccccc1)N1CCN(Cc2ccc(F)cc2Cl)CC1 11.2 µM [inhibitor, partial curve], Cc1cc(F)ccc1S(=O)(=O)Nc1nc2ccccc2nc1Cl 11.2 µM [inhibitor, partial curve, poor fit], CC(Sc1nnnn1-c1ccccc1)C(=O)Nc1ccccc1-c1ccccc1 (stereo not drawn) 28.2 µM [inhibitor, single point], CC(C)n1ncc2c(C(=O)N3CCN(Cc4cccs4)CC3)cc(C3CC3)nc21 28.2 µM [inhibitor, single point], CCC(NS(=O)(=O)c1cccs1)c1ccc(C)cc1 (stereo not drawn) 28.2 µM [inhibitor, single point], COc1ccccc1C(=O)NNC(=O)c1ccccc1 10 µM [inhibitor, partial curve, poor fit], COc1ccc(CCNC(=O)C(=O)NCC(c2cccs2)S(=O)(=O)c2cccs2)cc1 (stereo not drawn) 10 µM [inhibitor, partial curve, poor fit], Cc1cccc(NC(=O)COc2ccc(Br)cc2/C=N/O)c1 28.2 µM [inhibitor, single point], COc1cccc(-n2c(SCC(=O)NC(C)(C)C)nnc2-c2ccoc2C)c1 7.08 µM [inhibitor, partial curve, poor fit], Cc1ccc(NC(=O)COc2ccccc2C#N)cc1S(=O)(=O)N1CCCCCC1 10 µM [inhibitor, partial curve, poor fit], CC(C)COC(=O)C(C#N)c1nc2ccccc2nc1N1CCN(Cc2ccccc2)CC1 (stereo not drawn) 6.31 µM [inhibitor, partial curve, poor fit], CCOc1cccc(-c2nnc(SCC(=O)Nc3cccc(OC)c3)n2N)c1 14.1 µM [inhibitor, single point], Cc1ccc(CN2CCN(Cc3cccc(-n4cccn4)c3)CC2CCO)cc1 (stereo not drawn) 10 µM [inhibitor, partial curve], NC(=O)c1c(NC(=O)CN2CCCC2)sc2c1CCCC2 31.6 µM [inhibitor, single point], CC1CCCC(C)N1C(=O)COC(=O)c1cc(-c2cccs2)nn1-c1ccccc1 (stereo not drawn) 7.94 µM [inhibitor, partial curve, poor fit], FC(F)(F)c1cccc(-c2cc3nc(NC4CCCCC4)ccn3n2)c1 11.2 µM [inhibitor, partial curve, poor fit], O=C(NCc1ccc(F)cc1Cl)C1CCN(S(=O)(=O)N2CCCCC2)CC1 11.2 µM [inhibitor, partial curve, poor fit], O=C(CO/N=C/c1ccccc1O)NNC(=O)c1ccccc1Cl 0.501 µM [inhibitor, full curve, poor fit], CCOC(=O)c1csc(COc2ccc(OC)cc2)n1 8.91 µM [inhibitor, partial curve, poor fit], CC(C)N(Cc1ccccc1)C(=O)CN1C(=O)NC2(CCOc3ccccc32)C1=O (stereo not drawn) 25.1 µM [inhibitor, partial curve, poor fit], O=S(=O)(c1ccc(Oc2ccccc2)cc1)N1CCOCC1 28.2 µM [inhibitor, single point], CCOC(=O)N(C)c1c(CC)nc2c(OCc3ccc(Cl)cc3)cccn12 22.4 µM [inhibitor, single point], COc1ccc2nc(SCC(=O)NC3CCCc4ccccc43)[nH]c2c1 (stereo not drawn) 28.2 µM [inhibitor, single point], CCOC(=O)C1CCN(C(=O)c2ccc3c(=O)n4nc(Nc5ccccc5CC)sc4nc3c2)CC1 11.2 µM [inhibitor, single point], O=C(c1ccc(Cl)cc1[N+](=O)[O-])N1CCc2ccccc2C1 12.6 µM [inhibitor, single point], CCn1cnc2c1c(=O)n(Cc1cccc([N+](=O)[O-])c1)c(=O)n2Cc1ccccc1 6.31 µM [inhibitor, partial curve, poor fit], CCOc1ccc(C(=O)N(Cc2nc(-c3cccc(C)c3)no2)C(C)C)cc1 28.2 µM [inhibitor, single point], Cc1ccc(C(=O)N/C(=C\c2ccccc2)C(=O)OCc2ccccc2)cc1 11.2 µM [inhibitor, partial curve, poor fit], C=CCn1c(N)c(C(=O)OC(C)CC)c2nc3ccccc3nc21 (stereo not drawn) 28.2 µM [inhibitor, single point]
